Source: the supplement of paper PMC8728848
Some of the results follow.

Assays:
Test in all cases: glycan array binding signal (z-score within array); higher = stronger binding
Details in all cases: glycan notation: IUPAC condensed, linker removed
[1] = molecular target: Fuc(a1-3)GlcNAc
Procedure, shortened: (§1)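 Columns mapping to the same glycan were averaged after glycan names were converted to IUPAC-condensed notation. The data come from 3228 arrays in the Consortium for Functional Glycomics database, limited to those with an available protein sequence. Binding is reported as a within-array Z-score averaged across arrays of one protein sequence and across linkers.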

[2] = molecular target: Fuc(a1-3)[Gal(b1-4)]Glc6S
Procedure, shortened: as §1

[3] = molecular target: Fuc(a1-3)[Gal(b1-4)]GlcNAc
Procedure, shortened: as §1

[4] = molecular target: Fuc(a1-3)[Gal(b1-4)]GlcNAc(b1-2)Man
Procedure, shortened: as §1

[5] = molecular target: Fuc(a1-3)[Gal(b1-4)]GlcNAc(b1-2)Man(a1-3)[Fuc(a1-3)[Gal(b1-4)]GlcNAc(b1-2)Man(a1-6)]Man(b1-4)GlcNAc(b1-4)GlcNAc
Procedure, shortened: as §1

[6] = molecular target: Fuc(a1-3)[Gal(b1-4)]GlcNAc(b1-2)Man(a1-3)[Fuc(a1-3)[Gal(b1-4)]GlcNAc(b1-2)Man(a1-6)]Man(b1-4)GlcNAc(b1-4)[Fuc(a1-6)]GlcNAc
Procedure, shortened: as §1

[7] = molecular target: Fuc(a1-3)[Gal(b1-4)]GlcNAc(b1-3)Gal(b1-3)[Fuc(a1-4)]GlcNAc
Procedure, shortened: as §1

[8] = molecular target: Fuc(a1-3)[Gal(b1-4)]GlcNAc(b1-3)Gal(b1-4)[Fuc(a1-3)]GlcNAc
Procedure, shortened: as §1

[9] = molecular target: Fuc(a1-3)[Gal(b1-4)]GlcNAc(b1-3)Gal(b1-4)[Fuc(a1-3)]GlcNAc(b1-3)Gal(b1-4)[Fuc(a1-3)]GlcNAc
Procedure, shortened: as §1

[10] = molecular target: Fuc(a1-3)[Gal(b1-4)]GlcNAc(b1-3)GalNAc
Procedure, shortened: as §1

[11] = molecular target: Fuc(a1-3)[Gal(b1-4)]GlcNAc(b1-6)GalNAc
Procedure, shortened: as §1

[12] = molecular target: Fuc(a1-3)[Gal(b1-4)]GlcNAc(b1-6)[Gal(b1-3)GlcNAc(b1-3)]Gal(b1-4)Glc
Procedure, shortened: as §1

[13] = molecular target: Fuc(a1-3)[Gal(b1-4)]GlcNAc6S
Procedure, shortened: as §1

[14] = molecular target: Fuc(a1-3)[Gal3S(b1-4)]Glc
Procedure, shortened: as §1

[15] = molecular target: Fuc(a1-3)[Gal3S(b1-4)]GlcNAc
Procedure, shortened: as §1

[16] = molecular target: Fuc(a1-3)[Gal3S(b1-4)]GlcNAc6S
Procedure, shortened: as §1

[17] = molecular target: Fuc(a1-3)[GalNAc(b1-4)]GlcNAc
Procedure, shortened: as §1

[18] = molecular target: Fuc(a1-3)[GalNAc(b1-4)]GlcNAc6S
Procedure, shortened: as §1

[19] = molecular target: Fuc(a1-4)GlcNAc
Procedure, shortened: as §1

[20] = molecular target: Fuc(b1-3)GlcNAc
Procedure, shortened: as §1

[21] = molecular target: Gal(a1-2)Gal
Procedure, shortened: as §1

[22] = molecular target: Gal(a1-3)Gal
Procedure, shortened: as §1

[23] = molecular target: Gal(a1-3)Gal(b1-3)GlcNAc
Procedure, shortened: as §1

[24] = molecular target: Gal(a1-3)Gal(b1-3)GlcNAc(b1-2)Man
Procedure, shortened: as §1

[25] = molecular target: Gal(a1-3)Gal(b1-3)GlcNAc(b1-2)Man(a1-3)[Gal(a1-3)Gal(b1-3)GlcNAc(b1-2)Man(a1-6)]Man(b1-4)GlcNAc(b1-4)GlcNAc
Procedure, shortened: as §1

[26] = molecular target: Gal(a1-3)Gal(b1-3)GlcNAc(b1-3)GalNAc
Procedure, shortened: as §1

[27] = molecular target: Gal(a1-3)Gal(b1-3)GlcNAc(b1-6)GalNAc
Procedure, shortened: as §1

[28] = molecular target: Gal(a1-3)Gal(b1-3)[Fuc(a1-4)]GlcNAc(b1-2)Man(a1-3)[Gal(a1-3)Gal(b1-3)[Fuc(a1-4)]GlcNAc(b1-2)Man(a1-6)]Man(b1-4)GlcNAc(b1-4)GlcNAc
Procedure, shortened: as §1

[29] = molecular target: Gal(a1-3)Gal(b1-4)Glc
Procedure, shortened: as §1

[30] = molecular target: Gal(a1-3)Gal(b1-4)GlcNAc
Procedure, shortened: as §1

B1: Cohesin-hDC-ASGPR (Homo sapiens) (protein)
chain: LDDLDAVRIKVDTVNAKPGDTVRIPVRFSGIPSKGIANCDFVYSYDPNVLEIIEIEPGDIIVDPNPDKSFDTAVYPDRKIIVFLFAEDSGTGAYAITKDGVFATIVAKVKEGAPNGLSVIKFVEVGGFANNDLVEQKTQFFDGGANVGDTTEPATPTTPVTTPTTTDDLDAASQNSKFQRDLVTLRTDFSNFTSNTVAEIQALTSQGSSLEETIASLKAEVEGFKQERQAGVSELQEHTTQKAHLGHCPHCPSVCVPVHSEMLLRVQQLVQDLKKLTCQVATLNNNASTEGTCCPVNWVEHQDSCYWFSHSGMSWAEAEKYCQLKNAHLVVINSREEQNFVQKYLGSAYTWMGLSDPEGAWKWVDGTDYATGFQNWKPGQPDDWQGHGLGGGEDCAHFHPDGRWNDDVCQRPYHWVCEAGLGQTSQESHHHHHH
glycan array binding signal (z-score) [1]: -0.367
glycan array binding signal (z-score) [2]: -0.425
glycan array binding signal (z-score) [3]: -0.143
glycan array binding signal (z-score) [4]: -0.444
glycan array binding signal (z-score) [5]: -0.454
glycan array binding signal (z-score) [6]: -0.501
glycan array binding signal (z-score) [7]: -0.491
glycan array binding signal (z-score) [8]: -0.349
glycan array binding signal (z-score) [9]: -0.476
glycan array binding signal (z-score) [10]: -0.391
glycan array binding signal (z-score) [11]: 2.41
glycan array binding signal (z-score) [12]: -0.495
glycan array binding signal (z-score) [13]: -0.524
glycan array binding signal (z-score) [14]: -0.33
glycan array binding signal (z-score) [15]: -0.168
glycan array binding signal (z-score) [16]: -0.422
glycan array binding signal (z-score) [17]: 2.62
glycan array binding signal (z-score) [18]: 2.62
glycan array binding signal (z-score) [19]: -0.313
glycan array binding signal (z-score) [20]: -0.392
glycan array binding signal (z-score) [21]: -0.204
glycan array binding signal (z-score) [22]: -0.502
glycan array binding signal (z-score) [23]: 1.05
glycan array binding signal (z-score) [24]: -0.52
glycan array binding signal (z-score) [25]: -0.442
glycan array binding signal (z-score) [26]: -0.376
glycan array binding signal (z-score) [27]: 2.9
glycan array binding signal (z-score) [28]: -0.322
glycan array binding signal (z-score) [29]: -0.483
glycan array binding signal (z-score) [30]: -0.492
